From article PMC7819943, “Rice protein-binding microarrays: a tool to detect cis-acting elements near promoter regions in rice”
This is one part of the list.

What follows are sequences tested against T1, OsWOX13 (Oryza sativa, UniProt Q5QMM3 1-267) (assay: protein-binding microarray (RPBM); PBS, 2% BSA, 51.3 ng/ul salmon testes DNA, 50 uM zinc acetate, 200 nM TF, 25 C, 1 h; high values mean tight binding). Conditions: protein: recombinant; tags: N-terminal polyhistidine and DsRed monomer fusion (pET32a); label: CyDye5-dUTP incorporated in the synthesized complementary strand; 3' TTTTT single-stranded linker to array surface; dsDNA, one strand shown.
T1 sequence: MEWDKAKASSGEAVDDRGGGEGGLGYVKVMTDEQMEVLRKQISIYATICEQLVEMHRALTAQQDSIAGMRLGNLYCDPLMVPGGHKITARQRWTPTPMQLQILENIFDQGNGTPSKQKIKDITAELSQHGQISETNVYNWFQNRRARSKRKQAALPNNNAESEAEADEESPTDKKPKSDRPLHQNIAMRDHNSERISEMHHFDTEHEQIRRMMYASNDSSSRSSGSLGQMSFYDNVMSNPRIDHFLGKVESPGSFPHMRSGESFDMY
Method in brief: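 An Axon 4000B scanner gave the binding signal as per-feature fluorescence intensity in arbitrary units. This followed washing of a custom Agilent array that had been incubated for 1 h at 25 °C with 200 nM protein in PBS, 2% BSA, salmon testes DNA and 50 µM zinc acetate. The proteins were transcription factors fused at the N-terminus to polyhistidine and DsRed, expressed in E. coli BL21-CodonPlus and purified on Ni–NTA.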

Sequence	binding signal
TCACGGTCACATTAATTACCTAATGTCTGTCAACTTCATGCGGAGTCACCTAGTGCAG	10600 fluorescence intensity (a.u.)
ACAATAAATTTTAAATGGATTTATGTCTCGTGTGATGTGTCGGAGTCACCTAGTGCAG	22800 fluorescence intensity (a.u.)
TTTAATTGGTTAAATGAACTATGTAATGTTATAATTATATCGGAGTCACCTAGTGCAG	33200 fluorescence intensity (a.u.)
ATAGTTGTGATTAGATTGTGACGTACACAATGAGTATGCACGGAGTCACCTAGTGCAG	45300 fluorescence intensity (a.u.)
GTGCAAAATTATCAATCACAAGCACAAGTAGTCAATCACTCGGAGTCACCTAGTGCAG	31600 fluorescence intensity (a.u.)
CGTTTAACAGGCTTGTTTCAAAGCGCTCAGGATCTAAGTGCGGAGTCACCTAGTGCAG	5050 fluorescence intensity (a.u.)
TTGATTTATAAATCTAATTTAGGCTTGGGAAAAGAACTTTCGGAGTCACCTAGTGCAG	21100 fluorescence intensity (a.u.)
GTCCTAAAATTACATATGTAAATTCTAAAATTATATATGTCGGAGTCACCTAGTGCAG	3590 fluorescence intensity (a.u.)
CCTGAATTGACTCTAGCTTATTGCCTTCGAATTAGGCTTGCGGAGTCACCTAGTGCAG	15300 fluorescence intensity (a.u.)
CCAACTGATTTAAACTCCCAATTGAAAGATCTTAAAACTTCGGAGTCACCTAGTGCAG	20700 fluorescence intensity (a.u.)
CGCCGATTGGCCGTCGCTGTCGATCGGTCGATGGTGAGGTCGGAGTCACCTAGTGCAG	8300 fluorescence intensity (a.u.)
ATGATAGATGGACACCGCATGAAGTATTGATGTGATGTGGCGGAGTCACCTAGTGCAG	42100 fluorescence intensity (a.u.)
CTAACAAATTGAAAGCAATACATAATACATGTAGATCCTTCGGAGTCACCTAGTGCAG	17400 fluorescence intensity (a.u.)
ATTAATTAATTGAAAATAATCTCTAAATACCATAGCAATCCGGAGTCACCTAGTGCAG	46500 fluorescence intensity (a.u.)
AGTGTACTCATCTTAAATTTTAATTACCACCAGCCCAATTCGGAGTCACCTAGTGCAG	4890 fluorescence intensity (a.u.)
AAATTAATTAGGTCGACTTGCCCAACGAGACAAATATAATCGGAGTCACCTAGTGCAG	3340 fluorescence intensity (a.u.)
TTTATAATTAACATCCGAATAGACAACGAATCCACTCTCACGGAGTCACCTAGTGCAG	19800 fluorescence intensity (a.u.)
CCTGATTTAGCACATGTGGTACACGGACAGGTTGATCGATCGGAGTCACCTAGTGCAG	14700 fluorescence intensity (a.u.)
CCATTAATTTTAAAGTGGAAGAGTATTTCATACCGCGGCCCGGAGTCACCTAGTGCAG	8400 fluorescence intensity (a.u.)
ATCTTAATTTTATGATATGACGTTTTATTCTGTACTATCTCGGAGTCACCTAGTGCAG	11100 fluorescence intensity (a.u.)
GTCAATTATCCATGTTAACCACAATCTAGTACAATACTGCCGGAGTCACCTAGTGCAG	14700 fluorescence intensity (a.u.)

Sequence	binding signal
TGAAATGCAATTGACAAGCATCCAAATCCCAGAAATGCCACGGAGTCACCTAGTGCAG	4590 fluorescence intensity (a.u.)
GCAATTGACGACGAGAAATCAATCGAAAACGAAATAATTGCGGAGTCACCTAGTGCAG	9040 fluorescence intensity (a.u.)
GGTTGCTTTGATGAATAATCAGTTCACACTGCGAGTGATTCGGAGTCACCTAGTGCAG	4800 fluorescence intensity (a.u.)
GTGGAAAATCATCAAATCAGTAAAGACTTTCTTGTAGTTGCGGAGTCACCTAGTGCAG	4500 fluorescence intensity (a.u.)
GAGCCTAATTACGCCATGATTTGACAATGTGGTGCTACAGCGGAGTCACCTAGTGCAG	39300 fluorescence intensity (a.u.)
CTAGTGTAATTAATTACTTGATTCATTGAGTATAAAGCTGCGGAGTCACCTAGTGCAG	45100 fluorescence intensity (a.u.)
AAACATAATATATATGATTAATACACACGTATTAGTGTTACGGAGTCACCTAGTGCAG	10300 fluorescence intensity (a.u.)
ATCGTCTAAATTAGCACAAATAAATATTAATAACATGATACGGAGTCACCTAGTGCAG	4560 fluorescence intensity (a.u.)
ATTCAGCTCAGTAAATCTGTTGATTGCTCGTTTCAAATCACGGAGTCACCTAGTGCAG	3390 fluorescence intensity (a.u.)
ATTTCCAAATTTGATTCTTTTCATATAGTTATAGCATATTCGGAGTCACCTAGTGCAG	3650 fluorescence intensity (a.u.)
AAGTAGATTAGTATATTCCTTCCATTTTAAAATATAGCAACGGAGTCACCTAGTGCAG	5900 fluorescence intensity (a.u.)
TCTAAATTAATAAGCATATGATATGAATAAAACTAAAAGTCGGAGTCACCTAGTGCAG	14500 fluorescence intensity (a.u.)
GAAAATTGTTTATTTTGGAAACTAAACAAAGCCTTAAGCTCGGAGTCACCTAGTGCAG	8250 fluorescence intensity (a.u.)
TGCAAACATCGAAAGTAATTACCGTATCATTGGATTCCGGCGGAGTCACCTAGTGCAG	4160 fluorescence intensity (a.u.)
ACACGCTAATCAAACCACCCGAACCACCTTTTATCACTGTCGGAGTCACCTAGTGCAG	4590 fluorescence intensity (a.u.)
CACAAATATTATTATACATCAATTAAATGCACAATCCAAGCGGAGTCACCTAGTGCAG	5810 fluorescence intensity (a.u.)
ATAATAACAATATAATTGAGTTTGTCTTGTACAACTAGTTCGGAGTCACCTAGTGCAG	10600 fluorescence intensity (a.u.)
TTAAACTGTTAAACGGTATATTTGTTTTAAAGTTTTCTAACGGAGTCACCTAGTGCAG	4220 fluorescence intensity (a.u.)
GAAATGATGTTTCAATTATTCACTGCAATATTTGATCTATCGGAGTCACCTAGTGCAG	8220 fluorescence intensity (a.u.)
AAGAATGATTGGGACTCATCAAGAACATATGGTTCTGAGACGGAGTCACCTAGTGCAG	34200 fluorescence intensity (a.u.)
CATTAAATCTATAATTGAATAAATTTTCATAATATATTAGCGGAGTCACCTAGTGCAG	14300 fluorescence intensity (a.u.)

Sequence	binding signal
TCCAGCGTGATTTGTTCCAGGATGCGACGAGTCGACGATGCGGAGTCACCTAGTGCAG	20700 fluorescence intensity (a.u.)
AATTAATTTGCATATTCTGAAACGAACACACCGGTTTGCTCGGAGTCACCTAGTGCAG	28700 fluorescence intensity (a.u.)
TATCTGATTGAATTTGAAAGCTGAATATAATTTGACTTTGCGGAGTCACCTAGTGCAG	42000 fluorescence intensity (a.u.)
AAATAAAATGCTAACTGGATTGCCACGCGTATAAAACAGCCGGAGTCACCTAGTGCAG	6230 fluorescence intensity (a.u.)
TCTAATCATCAGACTAATTCTATGTCACGAAAATTACTTACGGAGTCACCTAGTGCAG	3560 fluorescence intensity (a.u.)
AATAGATAGATAGATAGATAGACGGTAGGAGCCACATGTCCGGAGTCACCTAGTGCAG	38100 fluorescence intensity (a.u.)
CTAGATTTGTAGTATCACGATATGTCCCATTCAGTTCTAGCGGAGTCACCTAGTGCAG	17300 fluorescence intensity (a.u.)
CAGTGCCGTGCCGCCGGAGATGATTGGCACCCTGGCGACCCGGAGTCACCTAGTGCAG	5710 fluorescence intensity (a.u.)
CTAAATTGGGCTTTTAGCCCATGTAGAACAGGAGTACTAGCGGAGTCACCTAGTGCAG	18500 fluorescence intensity (a.u.)
TCAACCATTAGCCCATAATTAATTTTATAGTATTTAGTTACGGAGTCACCTAGTGCAG	7290 fluorescence intensity (a.u.)
GAGCTATTGATTGATTGATTGCTGATCGCTTCCAGTTCCACGGAGTCACCTAGTGCAG	54700 fluorescence intensity (a.u.)
CACGTGATTTTCGTGTGGAGAGGAGATGGGTGGGCGAAAGCGGAGTCACCTAGTGCAG	3520 fluorescence intensity (a.u.)
CCACTAAATTATCAGACGATAATTAAGTACCACTCTCTCTCGGAGTCACCTAGTGCAG	31200 fluorescence intensity (a.u.)
AGCTCTTTCTTGATTAGATCATCTCATGCTTTGCCCAGTCCGGAGTCACCTAGTGCAG	10800 fluorescence intensity (a.u.)
ATAGATCAATCACAAAAGACACGAACATCAGTCAACAAAACGGAGTCACCTAGTGCAG	9680 fluorescence intensity (a.u.)
ATAATTAACAAAATTTGACAGCAAACTAAATATAGCTATTCGGAGTCACCTAGTGCAG	47100 fluorescence intensity (a.u.)
CTGATTAAACAAAACGAAGATGCTGGGAAGCTCATGTCGACGGAGTCACCTAGTGCAG	15900 fluorescence intensity (a.u.)
ACAAAATTAAATTACTGGAGTAGTAGAGTGCTAGTAGACCCGGAGTCACCTAGTGCAG	16500 fluorescence intensity (a.u.)
AATAATTTATAAATCTCTGAAACGAAAATCAGGGTGTGAACGGAGTCACCTAGTGCAG	23400 fluorescence intensity (a.u.)
CACTTTGTCAGATGAATGATTGGCCCAAATAAAAGTTATACGGAGTCACCTAGTGCAG	6850 fluorescence intensity (a.u.)
TAAGATGATCGGACTCCTAATTACAGCTCATGATTTTCTTCGGAGTCACCTAGTGCAG	5820 fluorescence intensity (a.u.)

Sequence	binding signal
TCAGATTTTATTTGGACGGTTAGATTGCTATCTTTCCCGGCGGAGTCACCTAGTGCAG	3830 fluorescence intensity (a.u.)
ACTTAATATGTAACCATACCATATCATTATCCACTAGCAACGGAGTCACCTAGTGCAG	4080 fluorescence intensity (a.u.)
TAATTAAATTGTACAGATAAATCCTATTCAGGGTAATAGGCGGAGTCACCTAGTGCAG	6110 fluorescence intensity (a.u.)
CATCATGACGGCAATCATCGGCGACACGTGCCCGCAGCGGCGGAGTCACCTAGTGCAG	6580 fluorescence intensity (a.u.)
TTAATTGAGTTTTAATTATTACAAACTTAGAAAATAGATTCGGAGTCACCTAGTGCAG	23300 fluorescence intensity (a.u.)
TTGATTGTATCCCTGGGCACTTGTATTCTTGAGTGGATTTCGGAGTCACCTAGTGCAG	8740 fluorescence intensity (a.u.)
CTGACAGGTATTATTGCTTGATATATTTTACTCACTTTACCGGAGTCACCTAGTGCAG	14800 fluorescence intensity (a.u.)
GAAGATTGAGGAGACGGGGTAGAGGAAGAGGTGGTGCACGCGGAGTCACCTAGTGCAG	10900 fluorescence intensity (a.u.)
TTAGTTGAATGACAATTCCGGAATTCTAGATTGGTTTTCTCGGAGTCACCTAGTGCAG	9490 fluorescence intensity (a.u.)
ACATAGATTGCGACTAATTTTCACCCTTTCACCCTAATTGCGGAGTCACCTAGTGCAG	47800 fluorescence intensity (a.u.)
TTTGAAATGACAGATCAACTCATTGTGATATCTGAGTTTGCGGAGTCACCTAGTGCAG	6090 fluorescence intensity (a.u.)
AAGGAGAAATTAAATTATCTTGGATATTTCAAAATCAAGGCGGAGTCACCTAGTGCAG	4340 fluorescence intensity (a.u.)
AAACAAATTTAACATATGAATAGTACCATATATTGTTCACCGGAGTCACCTAGTGCAG	12400 fluorescence intensity (a.u.)
ACACTTGGAGATTGGTAATAGATTACAGAAAGTTGAATGCCGGAGTCACCTAGTGCAG	14300 fluorescence intensity (a.u.)
TTATCGTGATGAGTAAATTAAATTTGCACAGTCGATTGTTCGGAGTCACCTAGTGCAG	27400 fluorescence intensity (a.u.)
TCGAAGGTGATTTGTGCGGCATTGAGTTTGGGATCGGAAGCGGAGTCACCTAGTGCAG	9200 fluorescence intensity (a.u.)
TATGTGCTAATGGCGAATTAATTAGGTTTAATAAATACGTCGGAGTCACCTAGTGCAG	12600 fluorescence intensity (a.u.)
TGTGACGAAATTTGACGAAATTTTCATGATGTTTTCAGAGCGGAGTCACCTAGTGCAG	33200 fluorescence intensity (a.u.)
CTAAAAGAATAATTATAACTTTCGATCCCTATGTCCCATACGGAGTCACCTAGTGCAG	9120 fluorescence intensity (a.u.)
TGCCAAAATTTACAGCTTGATCGAATAGCTTCGCTGCTTGCGGAGTCACCTAGTGCAG	4096 fluorescence intensity (a.u.)
TAATAAATTATGAGATCAAATATGTTATTTTGTATGTCTTCGGAGTCACCTAGTGCAG	10300 fluorescence intensity (a.u.)
